The values below come from patent publication CN111690066A.

The target in the experiment is IL-4Rα on TF-1 cells (human) (UniProt P24394). Description: cell-based or functional assay.

B1: Tab2 (L1012H1031) (antibody, from another filing, V domains shown)
VH: EVQLVESGGGLVQPGGSLRLSCAASGFTFSRNAMFWVRQAPGKGLEWVSGIGTGGATSYADSVKGRFTISRDNAKNSLYLQMNSLRAEDTAVYYCARGRYYFDYWGQGTLVTVSS
VL: [no letters for about 100 residues]
B1 showed an EC50 of neutralisation of IL-4-induced TF-1 cell proliferation of 0.067 nM and an EC50 of neutralisation of IL-13-induced TF-1 cell proliferation of 0.097 nM.
